# The full ranking holds about 33,000 sequences; the median of “E-score (-0.5 to 0.5)” is about -0.012, and the highest 2% start at about 0.29. This is one part of the list.
# Target: T1, Ybr033w (UniProt P38073)
# T1 sequence: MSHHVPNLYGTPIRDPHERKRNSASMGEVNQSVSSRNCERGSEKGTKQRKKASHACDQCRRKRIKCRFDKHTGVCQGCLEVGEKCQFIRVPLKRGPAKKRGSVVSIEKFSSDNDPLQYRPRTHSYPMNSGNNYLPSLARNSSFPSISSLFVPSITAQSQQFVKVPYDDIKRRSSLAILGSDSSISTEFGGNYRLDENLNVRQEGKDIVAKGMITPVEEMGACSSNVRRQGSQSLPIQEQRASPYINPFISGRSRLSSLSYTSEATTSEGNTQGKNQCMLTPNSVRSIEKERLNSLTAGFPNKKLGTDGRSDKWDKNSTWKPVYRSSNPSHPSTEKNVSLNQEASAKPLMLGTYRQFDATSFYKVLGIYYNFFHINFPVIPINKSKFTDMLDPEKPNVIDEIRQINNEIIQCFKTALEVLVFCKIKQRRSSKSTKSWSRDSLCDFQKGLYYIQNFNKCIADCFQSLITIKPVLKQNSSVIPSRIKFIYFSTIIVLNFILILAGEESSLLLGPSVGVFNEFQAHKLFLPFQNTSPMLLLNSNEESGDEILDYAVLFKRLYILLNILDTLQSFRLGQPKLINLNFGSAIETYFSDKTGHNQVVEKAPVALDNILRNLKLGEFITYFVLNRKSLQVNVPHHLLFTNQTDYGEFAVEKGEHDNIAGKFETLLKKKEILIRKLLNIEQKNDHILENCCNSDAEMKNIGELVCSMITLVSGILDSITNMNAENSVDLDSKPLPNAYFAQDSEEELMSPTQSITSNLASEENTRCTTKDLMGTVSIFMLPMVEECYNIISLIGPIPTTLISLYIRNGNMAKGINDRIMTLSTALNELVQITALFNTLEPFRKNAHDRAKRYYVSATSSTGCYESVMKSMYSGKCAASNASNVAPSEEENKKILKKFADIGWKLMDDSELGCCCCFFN
# Assay: PBM E-score (8-mer binding enrichment) (E-score (-0.5 to 0.5)); higher = stronger / more preferred TF binding; most listed sequences are background and not binding sites
# Settings: protein concentration: 200 nM; construct: GST-full length
# Outline: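 Yeast transcription factors carrying a GST tag, as full-length proteins or DNA-binding domains, were produced by PURExpress in vitro transcription/translation. About 100-200 nM protein was applied to universal all-10-mer Agilent arrays, double-stranded by primer extension on fresh or once-stripped slides. Bound protein was detected with fluorescent anti-GST, and scans were normalised with masliner. The Universal PBM Analysis Suite gave each ungapped eight-base word, pooled with its reverse complement, an E-score, a modified Wilcoxon-Mann-Whitney statistic.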
row,Sequence,PBM E-score
1,GCTTATAA,0.147
2,ACCGCAGA,-0.144
3,TCTCGAGA,0.0301
4,AGATCAAT,0.169
5,AGGTCTAT,0.00576
6,AGTCAGAT,-0.00156
7,AACCAGCT,-0.122
8,CTGGAACC,-0.209
9,ACCCCAGG,-0.274
10,CTTAACGC,-0.085
11,CGTTGACC,0.00329
12,CAGCTGGC,-0.165
13,CCAATGGA,-0.109
14,GAAGCATC,-0.128
15,ACGACGAC,-0.16
16,CAGTGCGC,-0.233
17,ATGTGTAA,-0.0574
18,GCTCGTCC,0.0606
19,GAACATCA,0.0118
20,AGGCTATG,-0.279
21,CCAGGCGC,-0.157
22,GAGTTAAC,0.0643
23,CGTGATTA,0.0332
24,TTCCCAAA,0.277
25,CAACGCCA,-0.0806

row,Sequence,PBM E-score
1,CATGCTGA,0.0291
2,GCCCTATA,-0.0135
3,CTTGACAC,-0.117
4,ATCCGGCC,0.179
5,ACGTGCGC,-0.0698
6,TAAAAAGA,0.222
7,ATCATACG,0.116
8,AAGGAACG,-0.173
9,ATACTGAA,0.179
10,AACACCTG,-0.0978
11,AGCCGCCG,-0.0472
12,GTTCTGTA,0.168
13,CATACTGG,-0.156
14,ATACGAGC,0.162
15,AGAACATA,0.192
16,ACTTCAGG,0.0321
17,CAGGCTCG,-0.175
18,CTAACTAC,0.0343
19,GTCCCAAA,-0.00725
20,TCACGTGA,-0.117
21,GCGACTCA,-0.174
22,GAAAATTA,0.331
23,GGAACAAA,0.45
24,GTAGGACA,0.012
25,CCGACGGA,-0.0926

row,Sequence,PBM E-score
1,CATTTGAC,0.0203
2,ACGGCAAT,0.206
3,CTTGAGCA,-0.212
4,CTCGTGCA,0.0586
5,CGGAATCC,-0.0202
6,AATCCATA,0.139
7,CGCGATAC,-0.169
8,ACAACGGG,-0.0461
9,GCTTACTA,0.0994
10,AGAATCAC,-0.0247
11,CCACGTCG,-0.196
12,ACTCACCG,-0.0441
13,CCAGGCTA,-0.304
14,CGACTAGA,-0.0452
15,ACCAGGAC,-0.0574
16,ACAAGAAA,0.206
17,AGAATGAG,0.178
18,AGGCGAGA,-0.184
19,CGTAGGAC,-0.112
20,CCTTTCTA,0.071
21,GACACAAA,0.0738
22,ATCTGTTG,-0.0271
23,TGAGACCA,-0.104
24,CACGTTAA,0.0341
25,GCGCTATA,0.152

row,Sequence,PBM E-score
1,AGCTGCGG,-0.223
2,ACAGATCG,-0.0216
3,AAGCCTAG,-0.032
4,CTGCACGC,-0.282
5,AAAGCTCA,0.115
6,AGACAATC,0.0819
7,AGTCCCGG,-0.338
8,CTTAACAA,0.152
9,GAAACCCA,0.212
10,ACAATGGG,0.154
11,GCGCTCAC,-0.0712
12,CGTCTGTA,-0.11
13,AGTATAAA,0.266
14,ATGGGCAC,-0.096
15,AGGATGAA,0.187
16,GAGCGGGC,-0.275
17,CTAGGACC,-0.306
18,AGTAGAGA,-0.0766
19,CCCGACAA,0.0665
20,TACCGGAA,0.27
21,CTCGGTAC,-0.157
22,CCCGCGTA,-0.135
23,ACTCAACC,0.12
24,GCCGGCCA,-0.0303
25,ACCCCAAT,-0.235

row,Sequence,PBM E-score
1,AATTCCGG,0.154
2,AGTCAGTC,-0.176
3,GAGCTAAC,0.0972
4,CCCATCCA,-0.158
5,CGATGCCG,-0.278
6,CGAGCGGC,0.0102
7,CAAAGCAA,0.0872
8,GCTCCTCA,-0.246
9,ATAATTTC,0.314
10,AGTCAGTA,0.118
11,ATCCTATC,0.153
12,GTGAGACA,-0.0622
13,GCCAAACC,-0.233
14,AGTCCTTC,-0.261
15,ATAGGAAA,0.25
16,CCGAAGAA,0.0583
17,ACGAACCC,-0.0974
18,TATACTCA,0.156
19,TCGGACAA,0.205
20,ATGGTCCA,-0.176
21,GACATCGC,-0.225
22,ATAAGGTG,0.0884
23,CGTGCATA,-0.00113
24,TTAGATAA,0.218
25,CCCCATCC,-0.119

row,Sequence,PBM E-score
1,CACAAAAC,0.235
2,GAATTATC,0.305
3,AATCACGA,-0.272
4,CAACAGTC,-0.0223
5,CGGTTTCC,-0.0941
6,CTCGTATC,0.0502
7,AGGTACAT,0.0626
8,CCCTAGGA,-0.2
9,TCTGTCAA,0.0913
10,CTGTCTGA,-0.197
11,ATGTCCGC,-0.0425
12,AGTGCTAC,-0.0555
13,CAATAACA,0.066
14,CCAAGGAC,-0.181
15,CAAGCTGC,-0.186
16,AGAATTGC,0.124
17,TGAGCAAA,0.0518
18,TCGATCAA,-0.0721
19,AGAACGCA,0.0305
20,CCGGCGTC,-0.131
21,ACCGCATA,0.0633
22,AGTTGACA,0.179
23,CAATATAC,0.0977
24,CTCGCGTC,0.0487
25,ACACCGAT,-0.185

row,Sequence,PBM E-score
1,ACAGACAC,0.00371
2,GCTCATCA,-0.00535
3,CCTACATC,0.0261
4,GCCATCCC,-0.232
5,CGTGCTTA,0.103
6,ACTATTCT,-0.0961
7,GGTATGAA,0.179
8,AAGATTGC,0.211
9,CTGCGTGA,0.0319
10,GGGTTGCA,-0.0638
11,CGGTATTC,0.0714
12,CCAGATAG,-0.0173
13,AAAGTTAT,0.273
14,ATGGAGAC,0.00234
15,ATTATATC,0.256
16,CTCGAGTC,-0.149
17,CATGCACC,-0.134
18,GAGCCCAA,0.0706
19,TACTAGAA,0.201
20,GGTTAGAA,-0.173
21,ATCTCGTA,0.0387
22,GCTAGCTA,-0.0365

# Reference: the supplement of paper PMC3334620
